Results: PubChem BioAssay AID1347073 (National Center for Advancing Translational Sciences (NCATS), 2019)
Screen size: about 45,000 compounds; about 200 (0.44%) were called active. Another 7% or so got no clear call; they are omitted. Calls come from the whole dose curve; as a rule, active = well fitted activation curve with a large enough effect; inconclusive = small, poorly fitted or top-dose-only effect; inactive = no such curve, though single readings can be large or run the other way. Some of the results follow.

Test: qHTS of TDP-43 Inhibitors: NCGC Sytravon Library Screen; note: 0% is about no effect; nearly all actives have a fitted effect of over 55% in size
Details: yeast TDP-43 toxicity rescue, BacTiter-Glo growth, 24 h; series mostly up to 46.1 µM; growth rescue (activation): at the top concentration
Method in brief: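 TDP-43-expressing yeast, pregrown in raffinose, seeded at OD600 0.02 in galactose medium with compound for 24 hr at 30 deg C. Growth read by BacTiter-Glo luminescence, so rescue of toxicity appears as activation.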

| Compound | growth rescue (activation) |
| --- | --- |
| CC(C(=O)OCC(=O)c1ccc([N+](=O)[O-])cc1)N1C(=O)C2C3CCC(C3)C2C1=O (configuration not stated) | inactive: 0.375% |
| CN1CCN(Cc2nc(-c3cccs3)no2)CC1c1ccccc1 (configuration not stated) | inactive: -16.5% |
| COC(=O)c1ccc(C(=O)OC)c(NC(=O)CSc2nc(-c3ccco3)cc(C(F)(F)F)n2)c1 | inactive: -3.86% |
| COC(=O)c1[nH]c2cc(C)ccc2c1NC(=O)CN1CCc2cc(OC)c(OC)cc2C1 | inactive: -14.9% |
| O=C1CCCN1CCC(=O)N1CCCC(Nc2ccc(F)c(F)c2)C1 (configuration not stated) | inactive: 13.9% |
| COc1ccc(CC(=O)O/N=C(\N)c2ccccc2)cc1OC | inactive: 27.1% |
| Cc1ccc(-c2csc(C3=C(O)CN(NC(=O)c4ccco4)C3=N)n2)cc1 | inactive: 1.95% |
| COc1ccc(C(=O)Nc2ccccc2C)cc1S(=O)(=O)N1CCOCC1 | inactive: -8.82% |
| O=C(COc1cccnc1[N+](=O)[O-])c1ccc(Cl)s1 | inactive: 18% |
| Cc1cc(C)c2c(N)c(C(=O)c3ccc(Cl)cc3Cl)sc2n1 | inactive: 32.7% |
| CS(=O)(=O)N1CCC(C(=O)NCc2ccc(F)cc2)CC1 | inactive: -0.312% |
| O=C(NCC1COc2ccccc2O1)c1cccs1 (configuration not stated) | inactive: 9.98% |
| Cc1c(NC(=O)c2cc(-c3ccc(F)cc3)nc3ccccc23)c(=O)n(-c2ccccc2)n1C | inactive: 15.5% |
| COc1ccccc1OCC(=O)NCc1nc(-c2ccccc2)no1 | inactive: 21% |
| C=CCSc1nsc(NC(=O)Nc2ccc(F)cc2)n1 | inactive: -70.2% |
| CCN(C(=O)CSc1n[nH]c(-c2cc(Cl)ccc2OC)n1)C1CCS(=O)(=O)C1 (configuration not stated) | inactive: 26.9% |
| CC(C)(C)SCCNC(=O)/C=C/c1ccc(F)cc1 | inactive: 27.8% |
| CCc1ccc2[nH]c3nc(SCc4nnc(-c5ccccc5)o4)nnc3c2c1 | inactive: 30% |
| Cc1cc([N+](=O)[O-])nn1CCCC(=O)Nc1c(C)n(C)n(-c2ccccc2)c1=O | inactive: 4.65% |
| O=C(O)c1ccc(CSc2nnnn2-c2ccc(F)cc2)cc1 | inactive: 9.85% |
| Cc1ccc(NS(=O)(=O)c2ccc3c(c2)C(=O)c2ccccc2C3=O)c(C)c1 | inactive: -5.36% |
| CC(C)(C)c1ccc(C(=O)NCC(=O)NCC(C)(C)N2CCOCC2)cc1 | inactive: -5.23% |

| Compound | growth rescue (activation) |
| --- | --- |
| CN(C(=O)c1ccc(S(=O)(=O)N2CCCC2)cc1)C1CCCCC1 | inactive: -1.55% |
| CC1SC2(NC1=O)C1CC3CC(C1)CC2C3 (configuration not stated) | inactive: 28.7% |
| COc1cccc(-c2n[nH]c3c2CCC3)c1 | inactive: 17.8% |
| COc1cccc(C(C(=O)NC(C)(C)C)N(CC(C)C)C(=O)CCC(=O)Nc2cc(C)on2)c1OC (configuration not stated) | inactive: -1.83% |
| C/C(=N/NC(=O)COc1cc(C)ccc1C(C)C)C(=O)O | inactive: 16.7% |
| C=CCn1c(-c2cccc(OC)c2)n[nH]c1=S | inactive: 11.6% |
| N/C(=N\OC(=O)CCCOc1ccccc1)c1cccc([N+](=O)[O-])c1 | inactive: 9.74% |
| COc1ccc(-n2nc(C(=O)Nc3nc4ccc(OC)cc4s3)c3ccccc3c2=O)cc1 | inactive: 1% |
| CCOC(=O)c1c(NC(=O)C[n+]2ccc(Cc3ccccc3)cc2)sc(C)c1C | inactive: -7.29% |
| COC(=O)C1=C(C)N(CCc2c[nH]c3ccccc23)C(=O)/C1=C\N(C)C | inactive: -20.3% |
| Cc1cc(Cl)ccc1OCC(=O)NC(=S)Nc1ccccc1N1CCOCC1 | inactive: -8.81% |
| Cc1ccc(C(=O)Nc2ccc(N3CCCC3)cc2)c(C)c1 | inactive: 3.39% |
| COc1ccc(S(=O)(=O)NC(=O)C2(C)CCN2C(=O)Cc2ccccc2)cc1OC (configuration not stated) | inactive: -8.41% |
| COc1cccc(/C=C2\Sc3ccc(C(=O)NCc4cccnc4)cc3N(C)C2=O)c1 | inactive: -0.153% |
| COC(=O)C(Cc1c[nH]c2ccccc12)NC(=O)C1CC1 (configuration not stated) | inactive: 1.89% |
| Cc1nn(C)c(C)c1/C=C(/C(=O)C(C)(C)C)n1cncn1 | inactive: -3.45% |
| CC(C)(C)c1ccc(-c2n[nH]c(=S)n2/N=C/c2ccncc2)cc1 | inactive: 22% |
| CCN(CC(=O)NCc1ccc(F)cc1)CC(=O)NC1CCCC1 | inactive: -6.18% |
| NC(=O)c1ccccc1NC(=O)CC12CC3CC(CC(Br)(C3)C1)C2 | inactive: 1.49% |
| CN(C(=O)CSc1nc2ccc(Br)cc2c(=O)n1Cc1ccco1)C1CCS(=O)(=O)C1 (configuration not stated) | inactive: 7.42% |
| N#CCCN(C1CCCCC1)S(=O)(=O)c1cccc2nsnc12 | inactive: -7.35% |
| Cn1c(=O)c(=O)n(C)c2cc(S(=O)(=O)N3CCCC3C(=O)NCc3cccs3)ccc21 (configuration not stated) | inactive: 4.97% |

| Compound | growth rescue (activation) |
| --- | --- |
| Cc1cc(C)n2nc(SCC(=O)NC(=O)c3ccccc3)nc2n1 | inactive: 12.9% |
| O=c1[nH]c(C(Cl)(Cl)Cl)nc2ccc3ccccc3c12 | inactive: -3.92% |
| CCOC(=O)N1CCN(C(=O)c2ccc(OC)cc2)CC1 | inactive: -4.57% |
| COc1ccc(N(C(=O)C(C)C)S(=O)(=O)c2ccc3c(c2)n(C)c(=O)n3C)cc1 | inactive: 26.5% |
| COC(=O)c1ccccc1NC1=C/C(=N\S(=O)(=O)c2ccc(C(=O)O)cc2)c2ccccc2C1=O | inactive: 4.93% |
| CCCC1=C(C(=O)OCC)C(c2ccc(OC)c(C)c2OC)C(C#N)=C(N)O1 (configuration not stated) | inactive: 2.08% |
| O=C(CN(C(=O)CNC(=O)c1ccco1)c1ccc2c(c1)OCCO2)NC1CCCCC1 | inactive: 2.37% |
| O=C(COC(=O)c1cccc(OC(F)F)c1)NC1CCCC1 | inactive: 11% |
| COc1ccc(NC(=O)COC(=O)c2ccc3c(c2)OCO3)c(OC)c1 | inactive: -2.88% |
| COc1ccc(C2CC(c3ccc4ccccc4c3OC(C)=O)=NN2C(C)=O)cc1 (configuration not stated) | inactive: 2.15% |
| COc1cc(C(=O)NCCOc2cc(C)ccc2C(C)C)cc(OC)c1OC | inactive: 28.8% |
| O=C(CSc1nnc2ccccn12)NNC(=O)c1ccc(Br)cc1 | inactive: -8.21% |
| O=C(O)C1(c2ccccc2)CCN(S(=O)(=O)c2cccc(Cl)c2)CC1 | inactive: 7.99% |
| Cc1ccc(S(=O)(=O)N2CCCNCC2)cc1 | inactive: 13.6% |
| COc1ccc(CCN(C)CC(=O)Nc2ccc(F)c(Cl)c2)cc1OC | inactive: 2.5% |
| C=CCc1cc(/C=C2/NC(=O)NC2=O)cc(OCC)c1O | inactive: 12.7% |
| O=C(Cc1c(F)cccc1Cl)NC1=NCCS1 | inactive: -12.1% |
| Cc1cc(Oc2ccccc2F)nc(NCc2ccccc2)n1 | inactive: 14.6% |
| Cc1ccc(NC(=O)c2ncn(-c3ccccc3)n2)c(Cl)c1 | inactive: 17.6% |
| CC(=O)c1cccc(NC(=O)CCC(=O)c2ccc(F)cc2)c1 | inactive: -16.2% |
| CCOc1ccc(CCNC(=O)C2=C(C)C(=O)OC23CCC(C)CC3)cc1OCC (configuration not stated) | inactive: 18.1% |
| CCC(CO)Nc1nc(CN2CCCCC2)nc2scc(-c3ccccc3)c12 (configuration not stated) | inactive: 13.9% |

| Compound | growth rescue (activation) |
| --- | --- |
| CN(C)C(=S)Nc1ccc([N+](=O)[O-])cc1 | inactive: 18.5% |
| O=C1NC(=S)N/C1=C/c1cccn1-c1ccc([N+](=O)[O-])cc1 | inactive: -7.92% |
| CCN(CC)c1ccc(NC(=O)CSc2nc3ccccc3c(=O)n2-c2cc(S(=O)(=O)N(C)C)ccc2C)cc1 | inactive: -30.1% |
| Cc1cccc(COC(=O)C(Cc2ccccc2)NC(N)=O)c1 (configuration not stated) | inactive: 0.0955% |
| COc1ccc(-c2c(=O)n(OCc3ccccc3[N+](=O)[O-])c3ccccc3[n+]2[O-])c(OC)c1 | inactive: -1.61% |
| O=[N+]([O-])c1cccc(S(=O)(=O)NCc2ccncc2)c1 | inactive: 0.488% |
| Cc1cc(N2CCN(C)CC2)nc(N2CCOCC2)n1 | inactive: 4.64% |
| Cc1cccc(C)c1NS(=O)(=O)c1ccc(OCCNS(C)(=O)=O)cc1 | inactive: 8.63% |
| NC(=O)C1CCN(C(=O)CSc2nc3ccccc3o2)CC1 | inactive: 28.4% |
| CC(=O)c1ccc(-c2nnc(CCC(=O)N(C)Cc3c(C)nc4ccccn34)o2)s1 | inactive: 7.55% |
| CC(=O)Oc1ccc2c3c(c(=O)oc2c1C)CCCC3 | inactive: 8.52% |
| O=C(COc1ccc(F)cc1)NCC1(N2CCCCC2)CCCCC1 | inactive: -11.4% |
| N#Cc1cccc(NC(=O)CSc2cccc[n+]2[O-])c1 | inactive: 12.9% |
| O=C(COC(=O)c1c(F)cccc1F)Nc1ccc2[nH]c(=O)[nH]c2c1 | inactive: -1.59% |
| CCN1CCN(CCCNC(=O)CNC(=O)c2nn(-c3ccc(OC)cc3)c(=O)c3ccccc23)CC1 | inactive: -21% |
| Cc1cccc(-n2c(N)cc(=O)nc2SCC(=O)Nc2ccccc2)c1 | inactive: 3.28% |
| Cc1ccc(OCC(O)CN2CC3(C)CC2CC(C)(C)C3)cc1 (configuration not stated) | inactive: -5.36% |
| Cc1ccc(Nc2ncc(C(=O)NCCCN3CCN(C)CC3)c3ccccc23)cc1Cl | inactive: 0.402% |
| CSc1ncccc1C(=O)Nc1ncc(C)s1 | inactive: 3.18% |
| CC(=O)N1CCN(CCN=CC2=C(O)CC(c3ccc(Cl)cc3)CC2=O)CC1 (configuration not stated) | inactive: -17.6% |
| O=C(CCN1CCOCC1)NNC(=O)c1ccc(Cl)c([N+](=O)[O-])c1 | inactive: 8.79% |
| COc1cccc(C(=O)Nc2ccc(C(F)(F)F)n(C)c2=O)c1 | inactive: 4.87% |

| Compound | growth rescue (activation) |
| --- | --- |
| Cc1cccc(-n2c(=O)c3c(C)c(C)sc3n(CC(N)=O)c2=O)c1 | inactive: -1.31% |
| COc1ccc(-c2cnc(N)nc2-c2ccc(OC)cc2O)cc1 | inactive: 36.8% |
| CCOc1cc(C(=O)NCc2ccc(C)cc2)ccc1OCC(=O)N1CCOCC1 | inactive: 5.4% |
| CCOc1ccccc1-c1nc(C(N)=O)c2[nH]c(=O)n(-c3ccccc3)c2n1 | inactive: -30.1% |
| Cc1ccc(C(=O)O)cc1NC(=O)Nc1ccc2c(c1)OCO2 | inactive: 4.97% |
| Cc1ccccc1NC(=O)Cc1nnc(SCC(=O)NC2=NCCS2)n1C | inactive: 5.37% |
| COc1cc(C2c3c(oc4ccccc4c3=O)C(=O)N2c2nccs2)ccc1O (configuration not stated) | inactive: -2.98% |
| Nc1nc(N2CCOCC2)n[nH]1 | inactive: -2.51% |
| COc1ccc(CC(=O)NC(c2ccccc2)c2ccc(C)cc2)c(OC)c1 (configuration not stated) | inactive: 10.5% |
| COc1cccc(-c2cc(C(=O)N3CCOCC3)no2)c1 | inactive: 12.5% |
| O=C(CCNC(=O)c1ccc([N+](=O)[O-])cc1)NCCc1ccc(Cl)cc1 | inactive: 26.3% |
| Cc1cccc(NC(=S)NCCO)c1C | inactive: -12% |
| O=C(CN1c2cccc3cccc(c23)S1(=O)=O)Nc1ccc(F)c(F)c1F | inactive: -4.84% |
| COc1ccc(C(=O)C(C)OC(=O)CN2C(=O)c3ccccc3C2=O)cc1 (configuration not stated) | inactive: 11% |
| COc1cc(/C=C2/NC(=O)N(Cc3ccccc3F)C2=O)cc(OC)c1OC | inactive: 5.56% |
| CN(c1ccccc1)S(=O)(=O)c1ccc(C(=O)NCCc2ccccc2)cc1 | inactive: 21.6% |
| Cc1cnc(C)c(Nc2nc(C(N)Cc3ccc(C(F)(F)F)cc3)cs2)n1 (configuration not stated) | inactive: 9.08% |
| CC(=O)c1cccc(NC(=O)N2CCCC(C(=O)c3cc(F)ccc3F)C2)c1 (configuration not stated) | inactive: -0.616% |
| O=C(COC(=O)c1n[nH]c2ccccc12)NC1CCCCC1 | inactive: 18% |
